The source of these data is the supplement of paper PMC6135742.

Counter-ions that a name gives are not always drawn. ± gives the standard deviation of the averaged measurements. Whole data set: some 2,600 compounds, median “total cell number (DAPI+ nuclei) relative to DMSO vehicle control” near -1.4, cut for the lowest 2% near -23. The list shows a part of the results.

This assay deals with jimpy (Plp1 jimpy) mouse iPSC-derived oligodendrocyte progenitor cells. Description: total cell number (DAPI+ nuclei) relative to DMSO vehicle control (SDs above negative control mean); higher = more surviving cells. The following applies: 10 µM; 3 days. How it is done: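 Primary phenotypic screen of >3,000 bioactive compounds (Selleck L1700 and Sigma LO1280 libraries) at a single dose of 10 µM. Compounds were added to jimpy (Plp1 mutant) mouse iPSC-derived OPCs at the start of thyroid hormone-induced oligodendrocyte differentiation, one well per compound in 384-well plates. After 3 days cells were stained for MBP, Sox10 and DAPI and imaged with an Operetta system. MBP+ oligodendrocyte number and total cell number were expressed as the number of SDs above the mean of the DMSO negative control on the same plate (n=16 control wells per plate). Hits were defined as >=4 SD for oligodendrocytes and >=2 SD for total cells.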
The compound `CCCCC1=NC2(CCCC2)C(=O)N1Cc1ccc(-c2ccccc2-c2nnn[nH]2)cc1` [Irbesartan] gave a total cell number of -0.973. Then `NC(=O)Cc1cccc(C(=O)c2ccccc2)c1N` [Nepafenac], with 0.954; and `C[C@H]1COC2=C1C(=O)C(=O)c1c2ccc2c1CCCC2(C)C` [Cryptotanshinone], with -0.222. Then `CC(=O)SCC[N+](C)(C)C` [Acetylthiocholine chloride], with -0.626; and `CN(C)CC[C@H](CSc1ccccc1)Nc1ccc(S(=O)(=O)NC(=O)c2ccc(N3CCN(Cc4ccccc4-c4ccc(Cl)cc4)CC3)cc2)cc1[N+](=O)[O-]`, with -23.1; and `NC(N)=N/N=C/c1ccccc1Cl` [Sephin-1], with -3.98. In turn, `CN(C)C(=O)COC(=O)Cc1ccc(OC(=O)c2ccc(NC(=N)N)cc2)cc1` [Camostat Mesilate] registered a total cell number of -0.216. Regarding `CC(C)NCC(O)c1ccc(NS(C)(=O)=O)cc1` (racemic) [(±)-Sotalol hydrochloride], the total cell number is -1.64. As to `CC(C)NCC(O)c1ccc(NS(C)(=O)=O)cc1` (racemic) [Sotalol], the total cell number was -0.808. `N=C(N)NC(=O)c1nc(Cl)c(N)nc1N` [Amiloride hydrochloride] displayed a total cell number of -1.83. Then `N=C(N)NC(=O)c1nc(Cl)c(N)nc1N` [Amiloride HCl], with -0.152. For `COc1cccc(OC)c1OCCNCC1COc2ccccc2O1` (centres undefined) [WB-4101 hydrochloride], the total cell number worked out at 0.524. Then `O=C1NCN(c2ccccc2)C12CCN(CCCC(c1ccc(F)cc1)c1ccc(F)cc1)CC2` [Fluspirilene], with -7.98; and `Nc1ccccc1NC(=O)c1ccc(CNC(=O)OCc2cccnc2)cc1` [Entinostat (MS-275)], with -12.6.

The compound `CCCCOc1c(C(=O)c2c(F)cc(C)cc2F)c[nH]c2nncc1-2` showed a total cell number of 0.134. With `N#CC(=C(/N)Sc1ccccc1N)/C(C#N)=C(/N)Sc1ccccc1N`, the total cell number was -4.1.

Regarding `NS(=O)(=O)c1cccc2c1c([N+](=O)[O-])cc1nc(O)c(O)nc12` [NBQX disodium], the total cell number is -1.95.

In turn, `NC(N)=NCc1cccc(I)c1` [m-Iodobenzylguanidine hemisulfate] displayed a total cell number of 7.97. As for `C[C@@H](Oc1cc(-n2cnc3ccc(CN4CCN(C)CC4)cc32)sc1C(N)=O)c1ccccc1C(F)(F)F`, the figure is -14.7; as for `COc1ccc(S(=O)(=O)Nc2nc(-c3cccc([N+](=O)[O-])c3)cs2)cc1OC`, -0.431.

Take `CNCC[C@H](Oc1cccc2ccccc12)c1cccs1` [Duloxetine HCl]: the total cell number was -16. Then `CC1(COc2ccc3c(c2)ncn3-c2ccc3cccc(N4CCC(N)CC4)c3n2)COC1`, with -12.2; and `COc1cc(Cc2cnc(N)nc2N)cc(OC)c1OC` [Trimethoprim], with -0.718 ± 0.086. Compound `NC(=O)C(=O)O` [Sodium Oxamate] yielded a total cell number of -2.27. As for `COc1cc2c(cc1OC)CN(CCc1ccc(NC(=O)c3cc(OC)c(OC)cc3NC(=O)c3cnc4ccccc4c3)cc1)CC2` [Tariquidar], the figure is -7; as for `C=C1C[C@@]23CC[C@H]4[C@@](C)(CCC[C@@]4(C)C(=O)O[C@@H]4O[C@H](CO)[C@@H](O)[C@H](O)[C@H]4O)[C@@H]2CC[C@]1(O[C@@H]1O[C@H](CO)[C@@H](O)[C@H](O)[C@H]1O[C@@H]1O[C@H](CO)[C@@H](O)[C@H](O)[C@H]1O)C3` [Stevioside], -1.65; as for `COc1ccc([C@H]2CNC(=O)C2)cc1OC1CCCC1` [S- (+)-Rolipram], 1.21. Consider `CN(C)c1cc2c(Nc3ccc4c(cnn4Cc4ccccc4)c3)ncnc2cn1`, for which the total cell number is -5.66. Compound `O=C(Nc1ccccc1)c1ccccc1O` [Salicylanilide] came in with a total cell number of -0.446.

Compound `CC(=O)c1cc([N+](=O)[O-])c(Sc2cccc(Cl)c2Cl)s1` returned a total cell number of -9.61. As for `CS(=O)(=O)c1ccc(C2=C(c3ccccc3)C(=O)OC2)cc1` [Rofecoxib], the figure is -2.37 ± 1.3. In turn, `Cn1c(=O)c2[nH]cnc2n(C)c1=O` [Aminophylline] gave a total cell number of -4.94.

In turn, `Cn1c(=O)c2[nH]cnc2n(C)c1=O` [Aminophylline ethylenediamine] gave a total cell number of -0.771. As for `Cc1[nH]c(=O)c(C#N)cc1-c1ccncc1` [Milrinone], the figure is -0.109 ± 0.26; as for `Cc1ccnc2c1NC(=O)c1cccnc1N2C1CC1` [Nevirapine], -0.509. In the case of `CN(C)CCC=C1c2ccccc2CCc2ccccc21` [Amitriptyline hydrochloride], the total cell number is -5.71. `CN(C)CCC=C1c2ccccc2CCc2ccccc21` [Amitriptyline HCl]: the total cell number was -4.94. With `O=C1CCC(N2C(=O)c3ccccc3C2=O)C(=O)N1` (racemic) [(±)-Thalidomide], the total cell number was -2.18. Then `O=C1CCC(N2C(=O)c3ccccc3C2=O)C(=O)N1` (racemic) [Thalidomide], with 3.22; and `N=C(N)N` [Guanidine HCl], with 1.61; and `C=C[C@H]1CN2CC[C@H]1C[C@@H]2[C@@H](O)c1ccnc2ccc(OC)cc12` [Quinidine sulfate], with -1.23. As for `CNC(=O)[C@H]1O[C@@H](n2cnc3c(NCc4cccc(I)c4)ncnc32)[C@H](O)[C@@H]1O`, the total cell number is -2.05. Then `CCc1nc(-c2cccc(C)c2)c(-c2ccnc(NC(=O)c3ccccc3)c2)s1`, with -3.27. In the case of `Cc1cccc(C)c1NC(=O)C1CCCCN1C` (centres undefined) [Mepivacaine HCl], the total cell number was -0.436. Take `COc1cc(/C=C/C(=O)N2CCC=CC2=O)cc(OC)c1OC` [Piperlongumine]: the total cell number is -8.21. For `Cc1ncc([N+](=O)[O-])n1CC(O)CCl` (centres undefined) [Ornidazole], the total cell number is -1.54. Regarding `N#Cc1ccc2[nH]cc(CCCCN3CCN(c4ccc5oc(C(N)=O)cc5c4)CC3)c2c1` [Vilazodone HCl], the total cell number is -0.542. As for `CN1C(C(=O)Nc2ccccn2)=C(O)c2sccc2S1(=O)=O` [Tenoxicam], the figure is -1.36; as for `CSc1ccc(C(=O)c2[nH]c(=O)[nH]c2C)cc1` [Enoximone], -0.12. Then `COc1ccc(-c2ccc(=N)n(CCCC(=O)O)n2)cc1`, with -0.277; and `CCCCCCCCCCC[C@@H](C[C@@H]1OC(=O)[C@H]1CCCCCC)OC(=O)[C@H](CC(C)C)NC=O` [Orlistat], with -1.79.

In turn, `CC1(C)CCC(CN2CCN(c3ccc(C(=O)NS(=O)(=O)c4ccc(NCC5CCOCC5)c([N+](=O)[O-])c4)c(Oc4cnc5[nH]ccc5c4)c3)CC2)=C(c2ccc(Cl)cc2)C1` registered a total cell number of -3.38. `CS(=O)(=O)c1cccc(CNc2nc(Nc3ccc4c(c3)CCC(=O)N4)ncc2C(F)(F)F)c1` yielded a total cell number of -12.7 ± 3.8. As for `COCCOc1cc2nc[nH]c(=O)c2cc1OCCOC`, the figure is -1.64. As for `S=C(Nc1ccccc1)Nc1nccs1` [1-Phenyl-3-(2-thiazolyl)-2-thiourea], the figure is -2.13. As to `COc1cc2ncc(-c3ccccc3)nc2cc1OC` [Tyrphostin AG 1296], the total cell number was -1.11. Compound `O=NO` [Sodium Nitrite] returned a total cell number of -0.157. As for `N[C@@H](Cn1ccc(=O)c(O)c1)C(=O)O` [L-Mimosine from Koa hoale seeds], the figure is -0.942; as for `COc1ccc(C(=O)Nc2sc3c(c2C(N)=O)CCCC3)cc1OC`, -5.36; as for `CC(=O)[C@@]1(O)CC[C@H]2[C@@H]3CCC4=CC(=O)CCC4=C3[C@@H](c3ccc(N(C)C)cc3)C[C@@]21C` [Ulipristal], -4.47. As for `CC(C)(Oc1ccc(Cl)cc1)C(=O)O` [Clofibric Acid], the figure is 1.93. As for `COc1cc(Nc2ncc(F)c(Nc3ccc4c(n3)NC(=O)C(C)(C)O4)n2)cc(OC)c1OC` [R406 (free base)], the figure is -10.1; as for `COc1cc(Nc2ncc(F)c(Nc3ccc4c(n3)NC(=O)C(C)(C)O4)n2)cc(OC)c1OC`, -9.31; as for `CS(=O)(=O)CCNCc1ccc(-c2ccc3ncnc(Nc4ccc(OCc5cccc(F)c5)c(Cl)c4)c3c2)o1`, -17.3.

Compound `C=CC(=O)Nc1cccc(Nc2nc(Nc3ccc(N4CCN(C(C)=O)CC4)cc3OC)ncc2C(F)(F)F)c1` came in with a total cell number of -15.5. As for `Nc1ccc(-c2nc3ccc(-c4nc5ccc(N)cc5[nH]4)cc3[nH]2)cc1`, the figure is -3.19; as for `Cn1ccnc1S` [Methimazole], -0.188; as for `Nc1c(Br)cc(Br)cc1CN[C@H]1CC[C@H](O)CC1` [Ambroxol HCl], 1.91.

In turn, `CN1CCc2ccccc2Cc2[nH]c3ccccc3c2CC1` came in with a total cell number of -0.107. As for `CC(C)(Sc1cc(C(C)(C)C)c(O)c(C(C)(C)C)c1)Sc1cc(C(C)(C)C)c(O)c(C(C)(C)C)c1` [Probucol], the figure is -3.24; as for `COc1ccccc1N1CCN(CC(O)COc2cccc3ccccc23)CC1` (centres undefined) [Naftopidil], 0.247.

As for `COc1ccccc1N1CCN(CC(O)COc2cccc3ccccc23)CC1` (centres undefined) [Naftopidil DiHCl], the total cell number is -2.28.

In turn, `COc1ccccc1N1CCN(CC(O)COc2cccc3ccccc23)CC1` (centres undefined) [Naftopidil dihydrochloride] registered a total cell number of -2.31. The compound `CN1CCC(=C2c3ccccc3CC(=O)c3sccc32)CC1` [Ketotifen fumarate] came in with a total cell number of -3.49. In turn, `CN1CCC(=C2c3ccccc3CC(=O)c3sccc32)CC1` [Ketotifen Fumarate] registered a total cell number of -2.3.

In turn, `Nc1nc(N)c2nc(-c3cccc(O)c3)cnc2n1` yielded a total cell number of -7.92.

Turning to `CCCN(CCC)C(=O)C(CCC(=O)O)NC(=O)c1ccccc1` (centres undefined) [Proglumide], the total cell number was -0.695. For the compound `O=C(O)CC[C@H]1CC[C@@](c2cc(F)ccc2F)(S(=O)(=O)c2ccc(Cl)cc2)CC1`, the total cell number was found to be 0.0291.

Compound `O=c1ccc2ccc(O)c(O)c2o1` [Daphnetin] had a total cell number of -1.17 ± 0.77.

`N#CC(c1ccc(Cl)cc1)c1c(Cl)cc(-n2ncc(=O)[nH]c2=O)cc1Cl` (centres undefined) [Diclazuril] returned a total cell number of 1.78. As for `COc1cc(OC)c(C(=O)CCCN2CCCC2)c(OC)c1` [Buflomedil HCl], the figure is 3.75; as for `CC(=O)NCCc1c[nH]c2ccc(O)cc12` [N-Acetyl-5-hydroxytryptamine], -2.46. Then `CC(C)(C)C(=O)OCOP(=O)(COCCn1cnc2c(N)ncnc21)OCOC(=O)C(C)(C)C` [Adefovir Dipivoxil], with -13.3; and `CNC(CC(=O)O)C(=O)O` [NMDA (N-Methyl-D-aspartic acid)], with -1.67.
